The supplement of paper PMC11417369
± gives the standard deviation of the averaged measurements. Some of the results follow.

system: PfAP2-LT AP2 domain (GST-tagged); assay: gcPBM binding intensity (ln(normalized median fluorescence intensity)); higher = stronger DNA binding
Procedure, shortened: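 An Agilent 4 × 180k array of primer-extended double-stranded 36-bp intergenic genomic probes, with negative controls, was incubated for 1 h with GST-tagged P. falciparum DNA-binding domains expressed in E. coli. Alexa488 anti-GST antibody detected bound protein, scanned at 488 nm. Binding intensity is the highest Masliner-normalised natural-log median intensity across replicate spots of either probe orientation.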

Sequence	gcPBM binding intensity (ln)
AAAAAATTATTATGAACACACATTTATTATATTCAT [CACACA_site1566]	8.71 ± 0.54
AATCTATCAAAGTGTACATGCAATAAAAAAAAAAAA [TGCATGCA_site103]	8.87 ± 0.45
TTTTTTTATTAATGTAGTACAATATAATGTTATATT [XGTACX_site2295]	8.61 ± 0.6
GAGGTCTTTTTTAATGTGCACATATATATATATATA	9.54 ± 0.16
TTTTTTTTTTTTTTTACACACTCCAATAAAAAAGAA [CACACA_site2119]	8.27 ± 0.3
TATAAAAATATATTTACACACTATAAATATCGAAAG [CACACA_site6896]	8.68 ± 0.4
TAATTTATAAATATAATATTTATGTATATGATGTTT [CACACA_negctrl_site464]	8.64 ± 0.45
ATTATATATATCAGGTGTACGTAAAAAAAATGGACG [XGTACX_site1028]	9.1 ± 0.37
AACGATTTACATCACTGTACTAATGATATACCTCAT [XGTACX_site7463]	9.14 ± 0.39
TATATATATATATATTGTACTATATAGTATCTTTTT [XGTACX_site1646]	9.46 ± 0.2
TATATATTTTCTTTTGCACACTGTTTTCCTTTTTTT [CACACA_site2739]	9.3 ± 0.47
TTCGTAATTTATATCACACACATATATATATAATAA [CACACA_site3115]	8.89 ± 0.38
TACCCTTGCATGTAGGTGCAATTTTTTTTTTTTTTT	8.76 ± 0.43
CAACTTTATACATATAGTACAAGTTATATTTTATTA [XGTACX_site6651]	8.49 ± 0.47
TAATAATAGTACTGACATCAAAATCTTATTAAAAAT [GTGCAC_negctrl_site308]	8.61 ± 0.42
TTCTTTTTTATTTTTCAACACACATAATAAATTTCT [CACACA_site8253]	8.79 ± 0.43
CTTTCCATATATGATAGTACACGATAAAAAAAAAAA [XGTACX_site5772]	8.46 ± 0.43
AAAGAAATAAGGTGCACACATATACATATATATATA [CACACA_site429]	9.71 ± 0.23
TTTAAAAAAAATTCATATTATATATATATATATTAT [CACACA_negctrl_site1733]	8.49 ± 0.47
AAGAAATAAATACATACACACATATATAAATAAATA [CACACA_site7559]	9.21 ± 0.43
AAGAAATAATTATTATGTACTTAAAAAAATTAAAAT [XGTACX_site7423]	8.54 ± 0.52
ATATATATATAATTATATAAAATATATCATATGTTA [XGTACX_negctrl_site47]	8.53 ± 0.42
TTTATGTATTTAATATGTACATATAGTTGTTAATAA [XGTACX_site1938]	8.62 ± 0.33

Sequence	gcPBM binding intensity (ln)
AAAATGTACGCATATACACACACATAAATAGATACG [CACACA_site9124]	9.57 ± 0.29
GCTATATATTAATGTTGTACTTTATGTTCATATTGT [XGTACX_site3619]	9.1 ± 0.48
TAAATATAGAAACACACACACATTAATACATATATT [CACACA_site3489]	9.745 ± 0.078
AAATTTGAAATGCATGAACACACACCGCTATAAATG [CACACA_site8230]	9.3 ± 0.31
TAATTTTTTATATATTGTACAAATAATATATGATGT [XGTACX_site268]	8.62 ± 0.42
ATCATTTTTATGTACACACACATATACGTTGAATAT [CACACA_site1865]	9.47 ± 0.28
ACATCATAAAATTTATGTACACATTTTTAATTATAC [XGTACX_site7759]	8.74 ± 0.44
AAGGTATACACTGCTTTATCAAGTTTAACTCTTTTT [XGTACX_negctrl_site118]	8.65 ± 0.46
TATAAAATTTACGTGTGTACATATTTAATAATTTTT [XGTACX_site5001]	8.84 ± 0.42
AAGATATGAGGGAATACACACATATTTATATTTATA [CACACA_site6846]	8.96 ± 0.47
GTTTCTACTTATATAACAGGACACGTGTGAATAATT [TGCATGCA_negctrl_site430]	9.24 ± 0.25
ACAATTGCATCTATCACACATACATACATACATACA [CACACA_site5063]	9.16 ± 0.24
TTGAAGGTGGCAATGTGTACATAGAATAACCAGTGC [XGTACX_site4738]	9.15 ± 0.54
AAAAAAAAAAAACATTGTACGCACATTTTATATGTC [XGTACX_site6974]	8.9 ± 0.35
AAAAAAATACATACGTGTACCCACATATATGTATCT [XGTACX_site5319]	8.94 ± 0.45
AATAAAAATAAAAGCACACATAAATATATATATATT [CACACA_site1441]	9.07 ± 0.46
TCATGGCCATTTTCAGTGCATATGTGTATTTAATAT [GTGCAC_site9529]	8.93 ± 0.34
GCAAGTCCATGAACGGTGCAGGAATTAACAAAAATA	8.91 ± 0.61
TATAATGATGATGATAGTACGTATTAGTATAAAAAA [XGTACX_site9]	8.81 ± 0.52
TCATGGGTGTATTTCACACACGGATAATCATTTATA [CACACA_site4663]	9.08 ± 0.38
TCATAAAAATAAAAATGTACACATTAGAAATATTGT [XGTACX_site3671]	8.72 ± 0.41
ATATTTTTTTTTGTTACACACGTTTTTTAAAAAATG [CACACA_site1603]	9.02 ± 0.44
